Results from PubChem BioAssay AID686978 (National Center for Advancing Translational Sciences (NCATS), 2013).
The campaign covered roughly 420,000 compounds. About 64,000 (15%) were called active. Inconclusive means that the source gave no clear call. Such entries were picked first, then a sample of the others. Calls follow the shape of the dose curve; as a rule, active = well fitted inhibition curve with a large enough effect; inconclusive = small, poorly fitted or top-dose-only effect; inactive = flat fitted curve, though single readings scatter. No potency is given beside an inconclusive call; the fits are too rough.

Experiment: qHTS for Inhibitors of human tyrosyl-DNA phosphodiesterase 1 (TDP1): qHTS in cells in absence of CPT; also: nearly all actives have a fitted effect of over 55% in size
Conditions: DT40 Tdp1-/- hTDP1 cells, no CPT, ATP luminescence, 48 h; activity change, negative = growth inhibition: at 46.2 µM (top of the series) unless noted
Procedure, shortened: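 Cells were dispensed at 400 per well, compounds added by pin tool, plates incubated ≥48 hr at 37 °C, then CellTiter-Glo added for 30 min at room temperature before luminescence reading. Line: DT40 Tdp1-/- complemented with hTDP1; camptothecin omitted.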
% is scaled to controls: 0 for no effect and ±100 for the full control effect; potency is read from the fitted curve at half-maximal effect; tags tell the direction and shape of the fitted curve.

Row | Structure (SMILES) | Potency | activity change, negative = growth inhibition
1 | CSc1cc(-c2ccc(Cl)cc2)c(C(=O)NN)s1 | inconclusive [inhibitor, full curve] | 
2 | Cc1[nH]c2ccccc2c1/C=N/Nc1nc2ccccc2[nH]1 | inconclusive [inhibitor, single point] | 
3 | Cc1ccc(/C(O)=C2/C(=O)C(=O)N(c3ccccn3)C2c2ccc([N+](=O)[O-])cc2)cc1 (stereo unspecified) | inconclusive [inhibitor, single point] | 
4 | O=C(COC(=O)c1ccc(Cl)nc1)NC1CCCc2ccccc21 (stereo unspecified) |  | inactive: -5.94%
5 | COc1cc(/C=C/C(=O)O)ccc1OCc1ccccc1C#N |  | inactive: 8.37%
6 | COC(=O)c1ccccc1NC(=O)C1CCN(S(=O)(=O)c2cc(OC)ccc2OC)CC1 | inconclusive [inhibitor, partial curve] | 
7 | Cc1nn(CCCC(=O)NCc2ccccc2)c(=O)c2cc3sccc3n12 |  | inactive: -26.7%
8 | Cc1cc(C)n2nc(-c3ccc(Br)cc3)cc2n1 | inconclusive [inhibitor, partial curve] | 
9 | CC1CCCCN1CCCNC(=O)c1ccc2nc(N3CCCCC3)sc2c1 (stereo unspecified) | inconclusive [inhibitor, single point] | 
10 | CC(/C=C1\SC(=S)N(CCC(=O)Nc2ccccc2O)C1=O)=C\c1ccccc1 | inconclusive [inhibitor, single point] | 
11 | Cn1c(O)c(N=NC(=O)c2cc(-c3cccs3)nc3ccccc23)c2ccccc21 | inconclusive [inhibitor, partial curve, poor fit] | 
12 | CN1C/C(=C/c2cccs2)C(=O)/C(=C\c2cccs2)C1 | inconclusive [inhibitor, single point] | 
13 | OC(C[n+]1cccc(Br)c1)c1ccccc1 (stereo unspecified) |  | inactive: -16.8%
14 | CC(C)(CO)C(O)C(=O)NCCC#N (stereo unspecified) |  | inactive: -22.3%
15 | O=C(Cc1ccc(F)cc1)NCCS(=O)(=O)N1CCN(c2ccccc2)CC1 | inconclusive [inhibitor, partial curve, poor fit] | 
16 | COc1ccc(C)cc1S(=O)(=O)N(CC(=O)N1CCCC1)c1ccccc1 |  | inactive: -4.43%
17 | Nc1c(N2CCN(c3ccccc3)CC2)c2ccccc2oc1=O | inconclusive [inhibitor, partial curve] | 
18 | N/C(=N\N=C\c1ccc(Cl)cc1)N/N=C/c1ccc(Cl)cc1 |  | inactive: -20.6%
19 | COc1ccc(S(=O)(=O)N2CCCC(C(=O)NCCC3=CCCCC3)C2)cc1 (stereo unspecified) | inconclusive [inhibitor, single point] | 
20 | COC(=O)C1=CN(C)C=C(C(=O)OC)C1c1ccsc1 |  | inactive: -13.8%
21 | COc1ccc(C(C)=O)cc1CSc1nc2cc(C(=O)O)ccc2c(=O)n1Cc1ccccc1 | inconclusive [inhibitor, single point] | 
22 | Cc1ccc(C2C(C#N)=C(N)N(c3ncn[nH]3)C3=C2C(=O)CC(C)(C)C3)cc1 (stereo unspecified) |  | inactive: 8.85%
23 | Cc1c(Br)c(C(F)(F)F)nn1CC(=O)NCc1ccccc1 | inconclusive [inhibitor, single point] | 
24 | CCN1C(=O)C(CC(=O)Nc2ccc(OC)cc2)N(CCc2ccc(OC)cc2)C1=S (stereo unspecified) | inconclusive [inhibitor, single point] | 

Row | Structure (SMILES) | Potency | activity change, negative = growth inhibition
25 | CCCC(=O)n1nc(-c2cccnc2)nc1NCc1ccc(OC)cc1 | inactive | 
26 | CC(=O)N1CCC(C(=O)N2CCN(S(=O)(=O)c3ccc(Cl)s3)CC2)CC1 | inconclusive [inhibitor, full curve] | 
27 | Cn1c(N)c(C(=O)CSc2n[nH]c(-c3ccccc3)n2)c(=O)n(C)c1=O |  | inactive: -19.8%
28 | COC(=O)c1ccccc1NS(=O)(=O)c1ccc2c(c1)CCCN2C(C)=O | inconclusive [inhibitor, single point] | 
29 | CC(=O)c1cc(-c2ccccc2)n(CCC(=O)NC(C)c2ccccc2)c1C (stereo unspecified) | inconclusive [inhibitor, single point] | 
30 | Cc1ccc(S(=O)(=O)N2CCC(=O)N([C@H](COCc3ccccc3)Cc3ccccc3)CC2)cc1 | active: 18.4 µM | 
31 | Cc1ccccc1Cn1c2ccccc2c2cnn(CC(=O)NCCCN3CCOCC3)c(=O)c21 |  | inactive: -21.8%
32 | Cc1cc(NC(=O)c2ccc(N(C)S(=O)(=O)c3ccccc3)cc2)no1 | inconclusive [inhibitor, single point] | 
33 | Cc1cccc(C)c1NC(=O)Cn1c(=O)n(Cc2ccc3c(c2)OCO3)c(=O)c2oc3ccccc3c21 | active: 4.61 µM | 
34 | CCN(CC(=O)NC(=O)NCc1ccccc1)CC(=O)Nc1cc(Cl)ccc1C | inconclusive [inhibitor, single point] | 
35 | COc1ccccc1C(=O)COC(=O)c1ccc(-n2cnnn2)cc1 | inconclusive [inhibitor, single point] | 
36 | CCOc1cc(C(=O)Nc2ccc(-c3nc4ccccc4s3)cc2Cl)cc(OCC)c1OCC | active: 23.1 µM | 
37 | CCOC(=O)C1C(=O)C(=O)N(Cc2ccccc2)C1C(=O)OCC (stereo unspecified) |  | inactive: -8.74%
38 | CCOC(=O)Cc1csc(SCC(=O)Nc2cc(Cl)ccc2Oc2ccccc2)n1 | inconclusive [inhibitor, single point] | 
39 | COCCN(C(=O)Cc1ccc(OC)c(OC)c1)c1nc(-c2cc(OC)ccc2OC)cs1 | inconclusive [inhibitor, single point] | 
40 | COc1ccc(/C=N/Nc2cc(C)nc3c(C)cccc23)cc1 | active: 20.6 µM | 
41 | CCOC(=O)c1ccc(NC(=O)COc2cc3oc(=O)c(CC(C)O)c(C)c3cc2Cl)cc1 (stereo unspecified) |  | inactive: 25.9%
42 | COc1cccc(NS(=O)(=O)c2ccc3[nH]cc(C(=O)NCCC(C)C)c(=O)c3c2)c1 | active: 14.6 µM | 
43 | OCCNCCSc1ccc(Cl)cc1 | inconclusive [inhibitor, single point] | 
44 | COc1ccc(/C=N/NC(=O)c2ccncc2)cc1CN1CCCc2ccccc21 | inconclusive [inhibitor, single point] | 
45 | COc1ccccc1NC(=O)Cn1nc(-c2ccc(C)cc2)c2c(c1=O)CCCC2 | inconclusive [inhibitor, single point] | 
46 | Cc1ccccc1N=Cc1c(O)n(-c2nccs2)c(=O)c2ccccc12 | inconclusive [inhibitor, single point] | 
47 | COCc1c(C(=O)N2CCN(c3ncccn3)CC2)oc2ccccc12 | inconclusive [inhibitor, single point] | 
48 | C#CCOCCOCCOCCNc1nc(N2CCN(C(=O)CCCCCCCCCCNC(=O)Cn3cc(C[C@@H](C)O)nn3)CC2)nc(N2CCN(C(=O)CCCCCCCCCCNC(=O)[C@H](CCCCN)n3cc(C[C@@H](C)CC)nn3)CC2)n1 | active: 20.6 µM | 

Row | Structure (SMILES) | Potency | activity change, negative = growth inhibition
49 | N#Cc1csc(CCNC(=O)c2ccccc2)n1 |  | inactive: 1.35%
50 | CC1(C)CC(=O)C(C(=O)/C=C/NCCc2ccccc2)C(=O)C1 | inconclusive [inhibitor, single point] | 
51 | Nc1nnc(-c2ccc(Cl)c(Cl)c2)s1 | inconclusive [inhibitor, partial curve] | 
52 | CCOc1ccc(OCC)c(NC(=O)C(NS(=O)(=O)c2cccs2)c2ccccc2)c1 (stereo unspecified) | inconclusive [inhibitor, single point] | 
53 | CCC(=O)OCc1cc(=O)oc2ccc3ccccc3c12 | inconclusive [inhibitor, single point] | 
54 | O=C(/C=C/c1ccc(OCCCF)cc1)N1CCN(Cc2ccccc2)CC1 | inconclusive [inhibitor, single point] | 
55 | CC1CCC(NC(=O)C2c3ccccc3C(=O)N2Cc2cccs2)CC1 (stereo unspecified) | inconclusive [inhibitor, partial curve] | 
56 | Fc1ccc(-n2ncc3c(NCCC4=CCCCC4)ncnc32)cc1 | inconclusive [inhibitor, single point] | 
57 | COc1ccc(C(=O)Nc2cc(S(=O)(=O)c3ccc(Cl)cc3)c(O)c(C)c2C)cc1 | inconclusive [inhibitor, single point] | 
58 | COc1ccc(CNC2c3ccccc3-c3ccccc32)cc1OC | inconclusive [inhibitor, single point] | 
59 | COc1ccccc1-c1nc(-c2ccccn2)no1 | active: 13 µM | 
60 | CC(C)CCn1nnnc1C(c1ccc(N(C)C)cc1)N1CCN(C(=O)c2ccco2)CC1 (stereo unspecified) |  | inactive: -16.2%
61 | Cc1nn(C)c(C)c1N1C(=O)c2cccc3c(Br)ccc(c23)C1=O | active: 20.6 µM | 
62 | O=S(=O)(NCc1cn2ccccc2n1)c1cccs1 |  | inactive: 7.77%
63 | CC(=O)C1=C(C)NC2=C(C(=O)CC(C)(C)C2)C1C (stereo unspecified) |  | inconclusive: -37.5% [inhibitor]
64 | CN(C(=O)c1ccc(NC(=O)Cc2cccc([N+](=O)[O-])c2)cc1)C1CCCC1 |  | inactive: -20.9%
65 | CCCCn1c(=O)[nH]c(=O)c2c1nc(-c1cccc(OC)c1)n2C | inconclusive [inhibitor, full curve, poor fit] | 
66 | C1CCN=C(Nc2nc3c(s2)CCCC3)CC1 | inconclusive [inhibitor, partial curve] | 
67 | CCOC(=O)Cn1c(=O)oc2cc(S(=O)(=O)NCCc3ccc(C)cc3)ccc21 |  | inconclusive: -32.2% [inhibitor]
68 | CC(C)(C)c1ccc(C(=O)NCC(c2cccs2)S(=O)(=O)c2cccs2)cc1 (stereo unspecified) | inconclusive [inhibitor, single point] | 
69 | O=C(COc1ccc(F)cc1)NCCN1CCCC1 |  | inactive: -1.64%
70 | Cc1ccc(S(=O)(=O)N2CCN(C(=O)CCn3nc(C)c(C)c3C)CC2)cc1C |  | inactive: -17.1%
71 | Cc1ccccc1-n1nc2c(c1NC(=O)c1cc3ccccc3o1)CS(=O)(=O)C2 |  | inactive: 4.47%
